# Source: the supplement of paper PMC8728848
# The other results are listed elsewhere or left out.
# How the values were obtained:
# Assay in all cases: glycan array binding signal (z-score within array); higher = stronger binding
# Conditions in all cases: glycan notation: IUPAC condensed, linker removed
# Fuc(a1-2)Gal = biological target: Fuc(a1-2)Gal
# Summary of the method: (§1)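 The Consortium for Functional Glycomics database supplied 3228 glycan arrays, of which those lacking an available protein sequence were dropped. The binding signal, a within-array Z-score, was averaged across arrays of the same protein sequence and across linkers. Negative scores can be read as non-binding.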
# Fuc(a1-2)Gal(b1-3)GalNAc = biological target: Fuc(a1-2)Gal(b1-3)GalNAc
# Summary of the method: as §1
# [1] = biological target: Fuc(a1-2)Gal(b1-3)GalNAc(a1-3)[Fuc(a1-2)]Gal(b1-4)Glc
# Summary of the method: as §1
# [2] = biological target: Fuc(a1-2)Gal(b1-3)GalNAc(a1-3)[Fuc(a1-2)]Gal(b1-4)GlcNAc
# Summary of the method: as §1
# [3] = biological target: Fuc(a1-2)Gal(b1-3)GalNAc(b1-3)Gal
# Summary of the method: as §1
# [4] = biological target: Fuc(a1-2)Gal(b1-3)GalNAc(b1-3)Gal(a1-4)Gal(b1-4)Glc
# Summary of the method: as §1
# [5] = biological target: Fuc(a1-2)Gal(b1-3)GalNAc(b1-4)[Neu5Ac(a2-3)]Gal(b1-4)Glc
# Summary of the method: as §1
# Fuc(a1-2)Gal(b1-3)GlcNAc = biological target: Fuc(a1-2)Gal(b1-3)GlcNAc
# Summary of the method: as §1
# [6] = biological target: Fuc(a1-2)Gal(b1-3)GlcNAc(b1-2)Man(a1-3)[Fuc(a1-2)Gal(b1-3)GlcNAc(b1-2)Man(a1-6)]Man(b1-4)GlcNAc(b1-4)GlcNAc
# Summary of the method: as §1
# [7] = biological target: Fuc(a1-2)Gal(b1-3)GlcNAc(b1-2)Man(a1-3)[Fuc(a1-2)Gal(b1-3)GlcNAc(b1-2)Man(a1-6)]Man(b1-4)GlcNAc(b1-4)[Fuc(a1-6)]GlcNAc
# Summary of the method: as §1
# [8] = biological target: Fuc(a1-2)Gal(b1-3)GlcNAc(b1-3)Gal(b1-4)Glc
# Summary of the method: as §1
# [9] = biological target: Fuc(a1-2)Gal(b1-3)GlcNAc(b1-3)GalNAc
# Summary of the method: as §1
# [10] = biological target: Fuc(a1-2)Gal(b1-3)GlcNAc(b1-3)[Fuc(a1-2)Gal(b1-3)GlcNAc(b1-6)]GalNAc
# Summary of the method: as §1
# [11] = biological target: Fuc(a1-2)Gal(b1-3)GlcNAc(b1-3)[Fuc(a1-3)[Gal(b1-4)]GlcNAc(b1-6)]Gal(b1-4)Glc
# Summary of the method: as §1
# [12] = biological target: Fuc(a1-2)Gal(b1-3)GlcNAc(b1-3)[Gal(b1-4)GlcNAc(b1-6)]Gal(b1-4)Glc
# Summary of the method: as §1
# [13] = biological target: Fuc(a1-2)Gal(b1-3)GlcNAc(b1-3)[Neu5Ac(a2-6)Gal(b1-4)GlcNAc(b1-6)]Gal(b1-4)Glc
# Summary of the method: as §1
# [14] = biological target: Fuc(a1-2)Gal(b1-3)GlcNAc6S
# Summary of the method: as §1
# [15] = biological target: Fuc(a1-2)Gal(b1-3)[Fuc(a1-4)]GlcNAc
# Summary of the method: as §1
# [16] = biological target: Fuc(a1-2)Gal(b1-3)[Fuc(a1-4)]GlcNAc(b1-2)Man(a1-3)[Fuc(a1-2)Gal(b1-3)[Fuc(a1-4)]GlcNAc(b1-2)Man(a1-3)]Man(b1-4)GlcNAc(b1-4)GlcNAc
# Summary of the method: as §1
# [17] = biological target: Fuc(a1-2)Gal(b1-3)[Fuc(a1-4)]GlcNAc(b1-2)Man(a1-3)[Fuc(a1-2)Gal(b1-3)[Fuc(a1-4)]GlcNAc(b1-2)Man(a1-6)]Man(b1-4)GlcNAc(b1-4)GlcNAc
# Summary of the method: as §1
# [18] = biological target: Fuc(a1-2)Gal(b1-3)[Fuc(a1-4)]GlcNAc(b1-2)Man(a1-3)[Fuc(a1-2)Gal(b1-3)[Fuc(a1-4)]GlcNAc(b1-2)Man(a1-6)]Man(b1-4)GlcNAc(b1-4)[Fuc(a1-6)]GlcNAc(b1-4)[Fuc(a1-6)]GlcNAc
# Summary of the method: as §1
# [19] = biological target: Fuc(a1-2)Gal(b1-3)[Fuc(a1-4)]GlcNAc(b1-3)[Fuc(a1-3)[Gal(b1-4)]GlcNAc(b1-6)]Gal(b1-4)Glc
# Summary of the method: as §1
# [20] = biological target: Fuc(a1-2)Gal(b1-3)[Fuc(a1-4)]GlcNAc(b1-3)[Gal(b1-4)GlcNAc(b1-6)]Gal(b1-4)Glc
# Summary of the method: as §1
# [21] = biological target: Fuc(a1-2)Gal(b1-4)Fuc(a1-3)]GlcNAc(b1-2)Man(a1-3)[Fuc(a1-2)Gal(b1-4)[Fuc(a1-3)]GlcNAc(b1-2)Man(a1-6)]Man(b1-4)GlcNAc(b1-4)GlcNAc
# Summary of the method: as §1
# Fuc(a1-2)Gal(b1-4)Glc = biological target: Fuc(a1-2)Gal(b1-4)Glc
# Summary of the method: as §1
# Fuc(a1-2)Gal(b1-4)Glc6S = biological target: Fuc(a1-2)Gal(b1-4)Glc6S
# Summary of the method: as §1
# Fuc(a1-2)Gal(b1-4)GlcNAc = biological target: Fuc(a1-2)Gal(b1-4)GlcNAc
# Summary of the method: as §1
# [22] = biological target: Fuc(a1-2)Gal(b1-4)GlcNAc(b1-2)Man
# Summary of the method: as §1
# [23] = biological target: Fuc(a1-2)Gal(b1-4)GlcNAc(b1-2)Man(a1-3)[Fuc(a1-2)Gal(b1-4)GlcNAc(b1-2)Man(a1-6)]Man(b1-4)GlcNAc(b1-4)GlcNAc
# Summary of the method: as §1
# [24] = biological target: Fuc(a1-2)Gal(b1-4)GlcNAc(b1-2)Man(a1-3)[Fuc(a1-2)Gal(b1-4)GlcNAc(b1-2)Man(a1-6)]Man(b1-4)GlcNAc(b1-4)[Fuc(a1-6)]GlcNAc
# Summary of the method: as §1
binder,measurement,setting,value
PpFlo2 (Pichia pastoris) (protein) MGSSHHHHHHSSGLVPRGSHMDDSGNGDNSDTAYGCDITTNAVDGFDATIYQYNANDLRLIRDPTFMSTGYLGRNVLNKISGVTVPGFNIWNPSSRTATVYGVKNVNYYNMVLELKGYFKADVSGDYKLTLSHIDDSSMLFFGKETAFKCCDAGSIPLNEAPTDYSLFTIKPSNQVNSEVISATQYLEAGKYYPVRIVFVNALERARFDFKLTIPSGAVLDDFQNYIYQFGDLDENSCHE,glycan array binding signal (z-score),Fuc(a1-2)Gal,-0.289
same,glycan array binding signal (z-score),Fuc(a1-2)Gal(b1-3)GalNAc,-0.292
same,glycan array binding signal (z-score),[1],-0.302
same,glycan array binding signal (z-score),[2],-0.295
same,glycan array binding signal (z-score),[3],-0.295
same,glycan array binding signal (z-score),[4],-0.3
same,glycan array binding signal (z-score),[5],-0.297
same,glycan array binding signal (z-score),Fuc(a1-2)Gal(b1-3)GlcNAc,-0.288
same,glycan array binding signal (z-score),[6],-0.283
same,glycan array binding signal (z-score),[7],-0.285
same,glycan array binding signal (z-score),[8],-0.279
same,glycan array binding signal (z-score),[9],-0.279
same,glycan array binding signal (z-score),[10],-0.234
same,glycan array binding signal (z-score),[11],-0.305
same,glycan array binding signal (z-score),[12],-0.285
same,glycan array binding signal (z-score),[13],-0.27
same,glycan array binding signal (z-score),[14],-0.272
same,glycan array binding signal (z-score),[15],-0.3
same,glycan array binding signal (z-score),[16],-0.27
same,glycan array binding signal (z-score),[17],-0.346
same,glycan array binding signal (z-score),[18],-0.25
same,glycan array binding signal (z-score),[19],-0.288
same,glycan array binding signal (z-score),[20],-0.272
same,glycan array binding signal (z-score),[21],-0.266
same,glycan array binding signal (z-score),Fuc(a1-2)Gal(b1-4)Glc,-0.232
same,glycan array binding signal (z-score),Fuc(a1-2)Gal(b1-4)Glc6S,-0.299
same,glycan array binding signal (z-score),Fuc(a1-2)Gal(b1-4)GlcNAc,-0.29
same,glycan array binding signal (z-score),[22],-0.274
same,glycan array binding signal (z-score),[23],-0.259
same,glycan array binding signal (z-score),[24],-0.295
